No constants are given. Whether binding was seen depends on the method and setting. For part of these data: Binding seen in cells or lysates may run through a third protein. Some entries that bind do so weakly or less than the wild type. Where a sequence is shown, tags or fusion partners need not be part of it.
How the values were obtained:
[1] = target: T1, Mec3 (two-hybrid fusion) (S. cerevisiae) (UniProt Q02574); test: two-hybrid; Gal4 DB bait (pMB27) and Gal4 AD prey (pMB29) in diploid cdc13-1 reporter strains; growth on SC-His-Leu-Trp and SC-Ade-Leu-Trp, spotted at 23-29°C (23°C and 27°C shown); interactions of Ddc1 seem less strong at 27°C than at 23°C
T1 sequence: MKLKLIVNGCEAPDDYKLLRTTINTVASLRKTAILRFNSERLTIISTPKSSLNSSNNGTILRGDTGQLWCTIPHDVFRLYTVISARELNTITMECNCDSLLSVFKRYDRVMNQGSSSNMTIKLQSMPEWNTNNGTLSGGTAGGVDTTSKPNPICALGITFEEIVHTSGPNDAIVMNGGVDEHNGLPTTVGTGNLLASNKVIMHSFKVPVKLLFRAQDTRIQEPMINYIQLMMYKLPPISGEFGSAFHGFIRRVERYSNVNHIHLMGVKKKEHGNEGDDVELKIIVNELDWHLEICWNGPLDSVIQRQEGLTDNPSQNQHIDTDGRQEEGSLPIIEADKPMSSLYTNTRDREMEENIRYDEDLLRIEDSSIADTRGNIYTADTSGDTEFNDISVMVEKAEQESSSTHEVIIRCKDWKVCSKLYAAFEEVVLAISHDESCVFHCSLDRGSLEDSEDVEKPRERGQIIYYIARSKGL

The chains behind the UniProt entries cited, without tags or fusion partners.
UniProt P38859: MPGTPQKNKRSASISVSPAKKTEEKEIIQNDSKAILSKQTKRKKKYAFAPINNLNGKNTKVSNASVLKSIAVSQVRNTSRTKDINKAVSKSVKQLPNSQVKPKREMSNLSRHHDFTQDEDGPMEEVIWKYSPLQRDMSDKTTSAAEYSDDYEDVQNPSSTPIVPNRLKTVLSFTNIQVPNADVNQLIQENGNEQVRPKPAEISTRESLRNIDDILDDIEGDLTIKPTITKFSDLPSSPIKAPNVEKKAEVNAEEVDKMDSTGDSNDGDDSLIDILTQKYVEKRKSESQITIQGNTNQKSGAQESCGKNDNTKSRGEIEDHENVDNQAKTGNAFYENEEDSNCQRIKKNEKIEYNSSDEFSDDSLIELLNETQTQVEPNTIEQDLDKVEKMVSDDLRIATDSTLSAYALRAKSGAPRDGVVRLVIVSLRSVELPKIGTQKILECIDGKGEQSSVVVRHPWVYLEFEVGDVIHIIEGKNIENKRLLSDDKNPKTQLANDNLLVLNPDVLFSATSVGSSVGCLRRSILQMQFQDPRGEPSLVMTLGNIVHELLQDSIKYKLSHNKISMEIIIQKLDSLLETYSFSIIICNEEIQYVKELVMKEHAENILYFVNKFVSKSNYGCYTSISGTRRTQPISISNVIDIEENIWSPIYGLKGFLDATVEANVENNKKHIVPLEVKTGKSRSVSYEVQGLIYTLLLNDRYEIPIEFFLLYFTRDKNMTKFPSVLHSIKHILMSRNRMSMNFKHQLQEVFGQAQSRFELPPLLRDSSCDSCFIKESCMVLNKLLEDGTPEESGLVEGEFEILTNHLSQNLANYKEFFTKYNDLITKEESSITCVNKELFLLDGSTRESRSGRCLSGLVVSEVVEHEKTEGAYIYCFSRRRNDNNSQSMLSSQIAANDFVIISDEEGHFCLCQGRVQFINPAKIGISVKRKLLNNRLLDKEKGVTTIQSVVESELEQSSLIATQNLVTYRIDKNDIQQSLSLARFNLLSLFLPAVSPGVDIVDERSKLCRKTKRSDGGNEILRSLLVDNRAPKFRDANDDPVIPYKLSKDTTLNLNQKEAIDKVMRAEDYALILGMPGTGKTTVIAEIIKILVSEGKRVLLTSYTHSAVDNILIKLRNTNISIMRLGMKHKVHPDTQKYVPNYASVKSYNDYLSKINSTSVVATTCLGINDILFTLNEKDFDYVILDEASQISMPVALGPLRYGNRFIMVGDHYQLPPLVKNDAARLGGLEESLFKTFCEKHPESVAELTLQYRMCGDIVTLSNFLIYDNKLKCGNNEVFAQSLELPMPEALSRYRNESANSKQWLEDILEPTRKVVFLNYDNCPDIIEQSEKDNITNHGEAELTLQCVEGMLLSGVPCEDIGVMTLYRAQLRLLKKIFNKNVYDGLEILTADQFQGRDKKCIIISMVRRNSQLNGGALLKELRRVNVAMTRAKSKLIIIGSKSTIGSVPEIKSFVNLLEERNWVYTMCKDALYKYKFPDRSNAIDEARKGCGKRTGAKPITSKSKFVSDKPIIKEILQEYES

[2] = target: T2, Rad17 (two-hybrid fusion) (S. cerevisiae) (UniProt P48581); test: as above
T2 sequence: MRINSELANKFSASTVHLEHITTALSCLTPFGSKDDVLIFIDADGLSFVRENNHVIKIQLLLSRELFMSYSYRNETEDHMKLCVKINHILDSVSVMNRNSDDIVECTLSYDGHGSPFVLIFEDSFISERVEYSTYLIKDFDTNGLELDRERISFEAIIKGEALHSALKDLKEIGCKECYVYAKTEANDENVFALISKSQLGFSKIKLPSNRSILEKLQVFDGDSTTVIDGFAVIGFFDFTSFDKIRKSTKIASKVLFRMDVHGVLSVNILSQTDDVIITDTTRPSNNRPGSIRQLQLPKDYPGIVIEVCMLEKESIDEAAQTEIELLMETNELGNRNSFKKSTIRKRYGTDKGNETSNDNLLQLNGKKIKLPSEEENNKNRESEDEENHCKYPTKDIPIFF

Ddc1-Myc (S. cerevisiae) = target: T3, Ddc1-Myc (S. cerevisiae) (UniProt Q08949); test: co-IP; yeast cell lysates in IP buffer (pH 7.5, 20 mM HEPES, 140 mM NaCl, 1 mM EDTA, 1% Triton X 100, 0.1% sodium deoxycholate); anti-HA or anti-Myc antibody, protein G Dynabeads, 4°C overnight; four washes; western blot with anti-HA or anti-Myc
T3 sequence: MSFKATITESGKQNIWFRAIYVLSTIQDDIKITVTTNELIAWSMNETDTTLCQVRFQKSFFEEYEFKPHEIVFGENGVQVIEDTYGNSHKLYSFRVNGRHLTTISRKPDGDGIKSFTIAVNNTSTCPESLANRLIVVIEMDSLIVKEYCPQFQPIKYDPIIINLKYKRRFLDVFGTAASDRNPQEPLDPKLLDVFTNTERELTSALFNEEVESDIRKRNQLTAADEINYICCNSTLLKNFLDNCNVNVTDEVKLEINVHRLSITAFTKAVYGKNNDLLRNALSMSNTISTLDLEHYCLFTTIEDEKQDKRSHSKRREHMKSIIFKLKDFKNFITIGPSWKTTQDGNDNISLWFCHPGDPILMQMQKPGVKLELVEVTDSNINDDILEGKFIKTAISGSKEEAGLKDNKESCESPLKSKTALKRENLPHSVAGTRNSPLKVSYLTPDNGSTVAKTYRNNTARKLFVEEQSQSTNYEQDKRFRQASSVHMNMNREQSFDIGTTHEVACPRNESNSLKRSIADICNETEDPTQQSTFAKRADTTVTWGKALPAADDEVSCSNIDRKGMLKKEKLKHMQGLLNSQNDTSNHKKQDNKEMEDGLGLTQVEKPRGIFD

Question: How did the binding [1] turn out when “Dna2 (two-hybrid fusion) (from UniProt P38859 1-1522)” was run?
Answer: no binding

Question: What about the binding [2] of the same molecule?
Answer: no binding

Question: Which binding (Ddc1-Myc (S. cerevisiae)) does the source give for Dna2-HA (from UniProt P38859 1-1522) here?
Answer: no binding

B1: Mec3-HA (protein, UniProt Q02574 1-474)
chain: MKLKLIVNGCEAPDDYKLLRTTINTVASLRKTAILRFNSERLTIISTPKSSLNSSNNGTILRGDTGQLWCTIPHDVFRLYTVISARELNTITMECNCDSLLSVFKRYDRVMNQGSSSNMTIKLQSMPEWNTNNGTLSGGTAGGVDTTSKPNPICALGITFEEIVHTSGPNDAIVMNGGVDEHNGLPTTVGTGNLLASNKVIMHSFKVPVKLLFRAQDTRIQEPMINYIQLMMYKLPPISGEFGSAFHGFIRRVERYSNVNHIHLMGVKKKEHGNEGDDVELKIIVNELDWHLEICWNGPLDSVIQRQEGLTDNPSQNQHIDTDGRQEEGSLPIIEADKPMSSLYTNTRDREMEENIRYDEDLLRIEDSSIADTRGNIYTADTSGDTEFNDISVMVEKAEQESSSTHEVIIRCKDWKVCSKLYAAFEEVVLAISHDESCVFHCSLDRGSLEDSEDVEKPRERGQIIYYIARSKGL
Question: For B1, which binding (Ddc1-Myc (S. cerevisiae)) is on record?
Answer: binds

B2: Ddc1 (two-hybrid fusion) (protein, UniProt Q08949 1-612)
chain: MSFKATITESGKQNIWFRAIYVLSTIQDDIKITVTTNELIAWSMNETDTTLCQVRFQKSFFEEYEFKPHEIVFGENGVQVIEDTYGNSHKLYSFRVNGRHLTTISRKPDGDGIKSFTIAVNNTSTCPESLANRLIVVIEMDSLIVKEYCPQFQPIKYDPIIINLKYKRRFLDVFGTAASDRNPQEPLDPKLLDVFTNTERELTSALFNEEVESDIRKRNQLTAADEINYICCNSTLLKNFLDNCNVNVTDEVKLEINVHRLSITAFTKAVYGKNNDLLRNALSMSNTISTLDLEHYCLFTTIEDEKQDKRSHSKRREHMKSIIFKLKDFKNFITIGPSWKTTQDGNDNISLWFCHPGDPILMQMQKPGVKLELVEVTDSNINDDILEGKFIKTAISGSKEEAGLKDNKESCESPLKSKTALKRENLPHSVAGTRNSPLKVSYLTPDNGSTVAKTYRNNTARKLFVEEQSQSTNYEQDKRFRQASSVHMNMNREQSFDIGTTHEVACPRNESNSLKRSIADICNETEDPTQQSTFAKRADTTVTWGKALPAADDEVSCSNIDRKGMLKKEKLKHMQGLLNSQNDTSNHKKQDNKEMEDGLGLTQVEKPRGIFD
Question: Which results are given for B2?
Answer: binding [1]: binds; binding [2]: binds

B3: Mec3 (two-hybrid fusion) (protein, UniProt Q02574 1-474)
chain: MKLKLIVNGCEAPDDYKLLRTTINTVASLRKTAILRFNSERLTIISTPKSSLNSSNNGTILRGDTGQLWCTIPHDVFRLYTVISARELNTITMECNCDSLLSVFKRYDRVMNQGSSSNMTIKLQSMPEWNTNNGTLSGGTAGGVDTTSKPNPICALGITFEEIVHTSGPNDAIVMNGGVDEHNGLPTTVGTGNLLASNKVIMHSFKVPVKLLFRAQDTRIQEPMINYIQLMMYKLPPISGEFGSAFHGFIRRVERYSNVNHIHLMGVKKKEHGNEGDDVELKIIVNELDWHLEICWNGPLDSVIQRQEGLTDNPSQNQHIDTDGRQEEGSLPIIEADKPMSSLYTNTRDREMEENIRYDEDLLRIEDSSIADTRGNIYTADTSGDTEFNDISVMVEKAEQESSSTHEVIIRCKDWKVCSKLYAAFEEVVLAISHDESCVFHCSLDRGSLEDSEDVEKPRERGQIIYYIARSKGL
Question: How did the binding [2] turn out when B3 was run?
Answer: binds

B4: Sgs1-HA (protein, UniProt P35187 1-1447)
chain: MVTKPSHNLRREHKWLKETATLQEDKDFVFQAIQKHIANKRPKTNSPPTTPSKDECGPGTTNFITSIPASGPTNTATKQHEVMQTLSNDTEWLSYTATSNQYADVPMVDIPASTSVVSNPRTPNGSKTHNFNTFRPHMASSLVENDSSRNLGSRNNNKSVIDNSSIGKQLENDIKLEVIRLQGSLIMALKEQSKLLLQKCSIIESTSLSEDAKRLQLSRDIRPQLSNMSIRIDSLEKEIIKAKKDGMSKDQSKGRSQVSSQDDNIISSILPSPLEYNTSSRNSNLTSTTATTVTKALAITGAKQNITNNTGKNSNNDSNNDDLIQVLDDEDDIDCDPPVILKEGAPHSPAFPHLHMTSEEQDELTRRRNMRSREPVNYRIPDRDDPFDYVMGKSLRDDYPDVEREEDELTMEAEDDAHSSYMTTRDEEKEENELLNQSDFDFVVNDDLDPTQDTDYHDNMDVSANIQESSQEGDTRSTITLSQNKNVQVILSSPTAQSVPSNGQNQIGVEHIDLLEDDLEKDAILDDSMSFSFGRQHMPMSHSDLELIDSEKENEDFEEDNNNNGIEYLSDSDLERFDEERENRTQVADIQELDNDLKIITERKLTGDNEHPPPSWSPKIKREKSSVSQKDEEDDFDDDFSLSDIVSKSNLSSKTNGPTYPWSDEVLYRLHEVFKLPGFRPNQLEAVNATLQGKDVFVLMPTGGGKSLCYQLPAVVKSGKTHGTTIVISPLISLMQDQVEHLLNKNIKASMFSSRGTAEQRRQTFNLFINGLLDLVYISPEMISASEQCKRAISRLYADGKLARIVVDEAHCVSNWGHDFRPDYKELKFFKREYPDIPMIALTATASEQVRMDIIHNLELKEPVFLKQSFNRTNLYYEVNKKTKNTIFEICDAVKSRFKNQTGIIYCHSKKSCEQTSAQMQRNGIKCAYYHAGMEPDERLSVQKAWQADEIQVICATVAFGMGIDKPDVRFVYHFTVPRTLEGYYQETGRAGRDGNYSYCITYFSFRDIRTMQTMIQKDKNLDRENKEKHLNKLQQVMAYCDNVTDCRRKLVLSYFNEDFDSKLCHKNCDNCRNSANVINEERDVTEPAKKIVKLVESIQNERVTIIYCQDVFKGSRSSKIVQANHDTLEEHGIGKSMQKSEIERIFFHLITIRVLQEYSIMNNSGFASSYVKVGPNAKKLLTGKMEIKMQFTISAPNSRPSTSSSFQANEDNIPVIAQKSTTIGGNVAANPPRFISAKEHLRSYTYGGSTMGSSHPITLKNTSDLRSTQELNNLRMTYERLRELSLNLGNRMVPPVGNFMPDSILKKMAAILPMNDSAFATLGTVEDKYRRRFKYFKATIADLSKKRSSEDHEKYDTILNDEFVNRAAASSNGIAQSTGTKSKFFGANLNEAKENEQIINQIRQSQLPKNTTSSKSGTRSISKSSKKSANGRRGFRNYRGHYRGRK
Question: For B4, which binding (Ddc1-Myc (S. cerevisiae)) is on record?
Answer: no binding

B5: Exo1-HA (protein, UniProt P39875 1-702)
chain: MGIQGLLPQLKPIQNPVSLRRYEGEVLAIDGYAWLHRAACSCAYELAMGKPTDKYLQFFIKRFSLLKTFKVEPYLVFDGDAIPVKKSTESKRRDKRKENKAIAERLWACGEKKNAMDYFQKCVDITPEMAKCIICYCKLNGIRYIVAPFEADSQMVYLEQKNIVQGIISEDSDLLVFGCRRLITKLNDYGECLEICRDNFIKLPKKFPLGSLTNEEIITMVCLSGCDYTNGIPKVGLITAMKLVRRFNTIERIILSIQREGKLMIPDTYINEYEAAVLAFQFQRVFCPIRKKIVSLNEIPLYLKDTESKRKRLYACIGFVIHRETQKKQIVHFDDDIDHHLHLKIAQGDLNPYDFHQPLANREHKLQLASKSNIEFGKTNTTNSEAKVKPIESFFQKMTKLDHNPKVANNIHSLRQAEDKLTMAIKRRKLSNANVVQETLKDTRSKFFNKPSMTVVENFKEKGDSIQDFKEDTNSQSLEEPVSESQLSTQIPSSFITTNLEDDDNLSEEVSEVVSDIEEDRKNSEGKTIGNEIYNTDDDGDGDTSEDYSETAESRVPTSSTTSFPGSSQRSISGCTKVLQKFRYSSSFSGVNANRQPLFPRHVNQKSRGMVYVNQNRDDDCDDNDGKNQITQRPSLRKSLIGARSQRIVIDMKSVDERKSFNSSPILHEESKKRDIETTKSSQARPAVRSISLLSQFVYKGK
Question: Which binding (Ddc1-Myc (S. cerevisiae)) does the source give for B5 here?
Answer: no binding
